From patent US20030198990A1 (UNIVERSITY OF ROCHESTER, published 2003)

Target: T1, His-tag column purified baculovirus AR (UniProt P10275 1-920, limits assumed)
T1 construct: About 2 ug used in the GST-Rb pull-down; detected with anti-AR polyclonal antibody NH27; not shown: His tag
T1 sequence (looked up): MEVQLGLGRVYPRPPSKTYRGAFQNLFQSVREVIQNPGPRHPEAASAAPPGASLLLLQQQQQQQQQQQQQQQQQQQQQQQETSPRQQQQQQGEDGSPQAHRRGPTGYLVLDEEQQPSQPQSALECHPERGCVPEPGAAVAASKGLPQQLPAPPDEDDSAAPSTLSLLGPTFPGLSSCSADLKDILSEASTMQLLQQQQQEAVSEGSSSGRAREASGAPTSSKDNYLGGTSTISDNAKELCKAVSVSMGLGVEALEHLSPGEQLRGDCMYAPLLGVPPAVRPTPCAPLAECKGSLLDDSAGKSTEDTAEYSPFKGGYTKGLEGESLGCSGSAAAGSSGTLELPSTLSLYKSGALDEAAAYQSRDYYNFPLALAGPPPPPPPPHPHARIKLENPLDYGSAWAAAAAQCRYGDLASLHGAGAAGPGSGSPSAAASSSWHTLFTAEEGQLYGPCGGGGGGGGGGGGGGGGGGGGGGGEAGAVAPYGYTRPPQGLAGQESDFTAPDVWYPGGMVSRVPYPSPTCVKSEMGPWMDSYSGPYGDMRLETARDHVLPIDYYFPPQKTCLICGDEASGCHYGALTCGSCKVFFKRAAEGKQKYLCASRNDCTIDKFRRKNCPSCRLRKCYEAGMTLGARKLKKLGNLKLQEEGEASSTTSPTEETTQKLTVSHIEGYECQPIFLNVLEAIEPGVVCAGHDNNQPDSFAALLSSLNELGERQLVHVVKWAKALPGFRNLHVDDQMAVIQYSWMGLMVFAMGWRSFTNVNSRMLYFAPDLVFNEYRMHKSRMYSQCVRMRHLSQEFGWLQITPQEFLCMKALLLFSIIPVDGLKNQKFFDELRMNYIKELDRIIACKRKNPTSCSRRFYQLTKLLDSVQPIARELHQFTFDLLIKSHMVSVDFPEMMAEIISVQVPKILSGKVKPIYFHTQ
Assay: GST pull-down on glutathione-Sepharose beads, Western blot with anti-AR NH27

B1: GST alone (other)
chain: not shown
notes: Control of the pull-down; also called glutathione-S-transferase
Q: Does B1 bind?
A: no binding
